Experimental data as given in a collection of fitness landscapes (doi:10.1038/s41467-024-54723-y).
In all, about 18,000 sequences were measured (“TetR repression strength (sort-seq, GFP reporter)”: median about 0.23, highest 2% from about 0.68 on). Some of the results follow.

Biological target: TetR (class B, Tn10) (UniProt P04483)
Assay: TetR repression strength (sort-seq, GFP reporter) (relative to tetO2 = 1); higher = stronger repression
Details: E. coli
Method in brief: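 Repression strength is the top bin index plus one minus the read-weighted mean bin, relative to the unaltered operator's value. A low-copy library in E. coli SIG10-MAX randomized eight operator positions between a constitutive promoter and sfGFP, with TetR expressed constitutively; cells grew 5 h at 37 °C in LB with 50 µg/mL chloramphenicol and 10^6 were FACS-sorted into 13 bins that were each Illumina-sequenced. Three independent transformations were averaged, keeping only members with ≥30 reads in all replicates and CV ≤0.5.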

Sequence of UniProt P04483 (P04483 whole entry): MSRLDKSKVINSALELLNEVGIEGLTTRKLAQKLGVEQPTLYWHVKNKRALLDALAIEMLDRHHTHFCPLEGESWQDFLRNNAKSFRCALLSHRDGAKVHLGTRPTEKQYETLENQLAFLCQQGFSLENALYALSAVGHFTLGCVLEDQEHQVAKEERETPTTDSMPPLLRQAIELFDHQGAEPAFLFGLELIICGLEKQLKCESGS

Sequence | TetR repression strength
TCCCTGTAAGTGCCTGAGA | 0.24
TCCCTGTGAGTGGAAGAGA | 0.181
TCCCCCGGAGTAGGGGAGA | 0.0972
TCCCCAATAGTTGAGGAGA | 0.343
TCCCCTTCAGTCGGGGAGA | 0.202
TCCCAGCTAGTCTTCGAGA | 0.24
TCCCAACTAGTATTTGAGA | 0.204
TCCCGGTAAGTCCTGGAGA | 0.204
TCCCTTTGAGTGTGTGAGA | 0.16
TCCCCGGTAGTGCCTGAGA | 0.252
TCCCCTGGAGTTTTGGAGA | 0.0461
TCCCGCTTAGTAAATGAGA | 0.415
TCCCGTAAAGTCCGGGAGA | 0.173
TCCCCACAAGTTACAGAGA | 0.244
TCCCCACGAGTAGCGGAGA | 0.131
TCCCCAAAAGTTGTAGAGA | 0.259
TCCCACTCAGTGATAGAGA | 0.701
TCCCGCACAGTGATCGAGA | 0.275
TCCCTTAGAGTGATCGAGA | 0.338
TCCCAGCCAGTTTAAGAGA | 0.296
TCCCGGCAAGTGTGTGAGA | 0.258
TCCCGTTTAGTCCGTGAGA | 0.271
TCCCGCTGAGTTCCAGAGA | 0.207
TCCCTTTCAGTTATCGAGA | 0.602
TCCCTTTGAGTTAATGAGA | 0.278
TCCCAAGGAGTACTAGAGA | 0.266

Sequence | TetR repression strength
TCCCGGGTAGTTGGAGAGA | 0.506
TCCCCTGCAGTCATGGAGA | 0.0833
TCCCGGCAAGTAACGGAGA | 0.16
TCCCTCGTAGTGGCGGAGA | 0.385
TCCCCGTAAGTGGGGGAGA | 0.0711
TCCCGGGGAGTTGTGGAGA | 0.215
TCCCCTAGAGTTAAGGAGA | 0.425
TCCCATTTAGTGAGGGAGA | 0.298
TCCCTATCAGTGCTAGAGA | 0.841
TCCCAAGAAGTGGTGGAGA | 0.143
TCCCTCGCAGTCATGGAGA | 0.284
TCCCACCGAGTCTTGGAGA | 0.146
TCCCGGTGAGTGTTGGAGA | 0.494
TCCCGGTGAGTGGATGAGA | 0.254
TCCCGTAGAGTTCACGAGA | 0.29
TCCCTTAAAGTGGCCGAGA | 0.402
TCCCTCTGAGTCACCGAGA | 0.263
TCCCAATTAGTTGGAGAGA | 0.281
TCCCTGGAAGTTGAGGAGA | 0.219
TCCCTGATAGTTGGGGAGA | 0.165
TCCCCGGAAGTGTCGGAGA | 0.0979
TCCCTCGTAGTCTGAGAGA | 1.03
TCCCGTAGAGTGTTGGAGA | 0.145
TCCCAGTGAGTCGCGGAGA | 0.104
TCCCGGTGAGTTGAGGAGA | 0.395
TCCCAGTGAGTTCGCGAGA | 0.402

Sequence | TetR repression strength
TCCCGGGGAGTCGTAGAGA | 0.224
TCCCGTCTAGTTACAGAGA | 0.338
TCCCCGTTAGTGCTAGAGA | 0.337
TCCCCCTGAGTGCTTGAGA | 0.366
TCCCATGGAGTTAAGGAGA | 0.223
TCCCACGCAGTAGCTGAGA | 0.127
TCCCTGGTAGTGTTCGAGA | 0.0521
TCCCGAAAAGTCCCCGAGA | 0.402
TCCCGACCAGTTCATGAGA | 0.173
TCCCCGGGAGTTCACGAGA | 0.251
TCCCCGGAAGTTTCCGAGA | 0.377
TCCCAAACAGTCGACGAGA | 0.468
TCCCGGACAGTATAGGAGA | 0.514
TCCCTTTCAGTGGATGAGA | 0.498
TCCCTTTAAGTTAAGGAGA | 0.533
TCCCCCTTAGTGTCAGAGA | 0.262
TCCCCATCAGTACGGGAGA | 0.0704
TCCCTTGAAGTGGGCGAGA | 0.0979
TCCCTCTGAGTATCAGAGA | 0.163
TCCCCGTTAGTTGGGGAGA | 0.13
TCCCGGACAGTCGGGGAGA | 0.278
TCCCTGTAAGTCCATGAGA | 0.205
TCCCACGAAGTAGATGAGA | 0.131
TCCCTAAAAGTACGGGAGA | 0.217
TCCCACTAAGTATGTGAGA | 0.148
TCCCTTGAAGTGGGGGAGA | 0.266

Sequence | TetR repression strength
TCCCGGAGAGTTAGTGAGA | 0.195
TCCCTAGGAGTACAGGAGA | 0.191
TCCCGAGAAGTGTATGAGA | 0.304
TCCCTATTAGTTAAGGAGA | 0.207
TCCCGTGGAGTGGAGGAGA | 0.153
TCCCTTCTAGTTACCGAGA | 0.369
TCCCGTGTAGTTCAGGAGA | 0.19
TCCCTTAAAGTGCGCGAGA | 0.292
TCCCTTAGAGTAGCCGAGA | 0.407
TCCCGACAAGTGTACGAGA | 0.211
TCCCACGGAGTACCAGAGA | 0.306
TCCCAAAAAGTGTGGGAGA | 0.415
TCCCAGCTAGTACGCGAGA | 0.4
TCCCTTCCAGTAGAAGAGA | 0.245
TCCCCTAAAGTTAGTGAGA | 0.166
TCCCTCATAGTTTTGGAGA | 0.303
TCCCCTGTAGTTGTCGAGA | 0.123
TCCCGTCGAGTTTAGGAGA | 0.268
TCCCGGCCAGTTTAGGAGA | 0.246
TCCCGCATAGTACGTGAGA | 0.273
TCCCAATAAGTGGCAGAGA | 0.32
TCCCAGTTAGTTGAGGAGA | 0.231
TCCCCCAGAGTAGGGGAGA | 0.102
TCCCGCTCAGTAAAAGAGA | 0.427
TCCCTATAAGTGAAGGAGA | 0.492
TCCCAGCAAGTTGCCGAGA | 0.11

Sequence | TetR repression strength
TCCCTTTCAGTACTAGAGA | 0.354
TCCCAACAAGTGGATGAGA | 0.243
TCCCATTTAGTGAGAGAGA | 0.66
TCCCAAGGAGTACATGAGA | 0.202
TCCCGACAAGTCAGTGAGA | 0.339
TCCCCTATAGTATCAGAGA | 0.138
TCCCCGAGAGTCATAGAGA | 0.041
TCCCCTTCAGTCGAGGAGA | 0.0622
TCCCGTTAAGTGTCTGAGA | 0.183
TCCCAACTAGTAACGGAGA | 0.3
TCCCGTTTAGTTCCGGAGA | 0.148
TCCCCAAGAGTTGCAGAGA | 0.406
TCCCAACTAGTGTCGGAGA | 0.141
TCCCCACGAGTTGTGGAGA | 0.307
TCCCCGGTAGTACACGAGA | 0.0237
TCCCGGCCAGTCAATGAGA | 0.232
TCCCACGCAGTTTGCGAGA | 0.196
TCCCGTGCAGTGAGCGAGA | 0.166
TCCCATGGAGTGATCGAGA | 0.243
TCCCACCAAGTACGCGAGA | 0.287
TCCCCGGTAGTGTATGAGA | 0.173
TCCCTATAAGTTCCAGAGA | 0.375
TCCCCCCGAGTGGGAGAGA | 0.148
TCCCGAGGAGTATGAGAGA | 0.497
TCCCATTAAGTCCCTGAGA | 0.0859
TCCCCGCTAGTACAGGAGA | 0.415

Sequence | TetR repression strength
TCCCGGCGAGTCGGCGAGA | 0.0436
TCCCGCTCAGTTGAGGAGA | 0.16
TCCCCTCTAGTCCCGGAGA | 0.253
TCCCCCGGAGTTTATGAGA | 0.801
TCCCGAGAAGTGAATGAGA | 0.318
TCCCTTGGAGTAGGAGAGA | 0.214
TCCCTGTGAGTCCAGGAGA | 0.352
TCCCGGCAAGTGTAAGAGA | 0.126
TCCCAATTAGTCATAGAGA | 0.238
TCCCGGGTAGTCGCAGAGA | 0.233
TCCCTTCGAGTGATAGAGA | 0.559
TCCCGGTGAGTGGAAGAGA | 0.328
TCCCAGCGAGTAATTGAGA | 0.227
TCCCAAGTAGTGCGGGAGA | 0.254
TCCCGTCCAGTACTCGAGA | 0.518
TCCCAGAAAGTTGGTGAGA | 0.355
TCCCTGCTAGTGAGGGAGA | 0.173
TCCCACTGAGTGAGCGAGA | 0.242
TCCCACCTAGTTTGGGAGA | 0.238
TCCCCACTAGTTACCGAGA | 0.386
TCCCTAATAGTAGCAGAGA | 0.591
TCCCTGAGAGTGCAGGAGA | 0.224
TCCCGGATAGTTGTTGAGA | 0.264
TCCCTAGGAGTTTAAGAGA | 0.183
TCCCCTGGAGTAGTAGAGA | 0.266
TCCCGAGTAGTAGTTGAGA | 0.0777

Sequence | TetR repression strength
TCCCATGTAGTGGGTGAGA | 0.0985
TCCCTGAGAGTTGCGGAGA | 0.144
TCCCTGATAGTGAATGAGA | 0.274
TCCCAATTAGTCTACGAGA | 0.224
TCCCTTGAAGTGTTAGAGA | 0.0572
TCCCTTTTAGTCTGAGAGA | 0.336
TCCCATAGAGTGAGGGAGA | 0.223
TCCCGTGAAGTATAAGAGA | 0.213
TCCCGGTCAGTTAACGAGA | 0.448
TCCCCTACAGTGTGCGAGA | 0.236
TCCCCATTAGTGGAGGAGA | 0.275
TCCCTAACAGTTCTCGAGA | 0.43
TCCCATTCAGTCGGTGAGA | 0.549
TCCCGTCCAGTAGGGGAGA | 0.179
TCCCGTCAAGTGATGGAGA | 0.164
TCCCATACAGTCAACGAGA | 0.153
TCCCGGTGAGTCCTGGAGA | 0.254
TCCCTACTAGTAAGCGAGA | 0.582
TCCCTAGGAGTGCGGGAGA | 0.172
TCCCAAGGAGTGGAGGAGA | 0.0531
TCCCAACTAGTGACGGAGA | 0.204
TCCCAGACAGTACTCGAGA | 0.444
TCCCTGTCAGTCGGGGAGA | 0.154
TCCCGGCGAGTACTTGAGA | 0.259
TCCCGATTAGTCATGGAGA | 0.285
TCCCAGGTAGTGGTGGAGA | 0.127

Sequence | TetR repression strength
TCCCCTATAGTGTAGGAGA | 0.0194
TCCCTAGGAGTTCATGAGA | 0.163
TCCCAGGCAGTGGTCGAGA | 0.127
TCCCTGGGAGTGATTGAGA | 0.133
TCCCGCCTAGTTTGTGAGA | 0.179
TCCCGTGAAGTGATTGAGA | 0.129
TCCCTGCGAGTTTGTGAGA | 0.202
TCCCAGCGAGTTGAGGAGA | 0.264
TCCCCAGGAGTGTGAGAGA | 0.525
TCCCGGGGAGTCGAGGAGA | 0.249
TCCCGTCGAGTTAAGGAGA | 0.815
TCCCAAACAGTGGCTGAGA | 0.216
TCCCGTCCAGTGAGGGAGA | 0.183
TCCCGGAAAGTTGCGGAGA | 0.12
TCCCGGGAAGTGGTGGAGA | 0.438
TCCCTGTGAGTTCGGGAGA | 0.369
TCCCCACGAGTGCGAGAGA | 0.11
TCCCGCTCAGTTCTTGAGA | 0.204
TCCCAATCAGTTGGTGAGA | 0.142
TCCCATGAAGTGGCGGAGA | 0
TCCCGGACAGTGGGCGAGA | 0.0186
TCCCAGGGAGTCGCGGAGA | 0.168
